Experimental data taken from PubChem BioAssay AID488969 (Vanderbilt High Throughput Screening Facility, 2010).
Over roughly 110,000 compounds, “z-score” has its median near -0.1; the highest 2% begin near 2. The list shows a part of the results. The source made the active and inactive calls.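 The calls were made as follows: active = z-score in the third read window above 3 or below -3; inactive = the rest.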

target: Metabotropic glutamate receptor 8 (Rattus norvegicus) (UniProt P70579); experiment: rat mGluR8 modulators via GIRK flux, primary screen, cell-based, thallium flux, HTS (AID 488969); details: HEK293 rat mGluR8, GIRK (G protein-gated inwardly rectifying potassium channel) thallium flux, FluoZin2; at 10 µM; stronger effect = higher value; submaximal glutamate (EC20) added with thallium
Sequence of UniProt P70579 (P70579 whole entry, looked up): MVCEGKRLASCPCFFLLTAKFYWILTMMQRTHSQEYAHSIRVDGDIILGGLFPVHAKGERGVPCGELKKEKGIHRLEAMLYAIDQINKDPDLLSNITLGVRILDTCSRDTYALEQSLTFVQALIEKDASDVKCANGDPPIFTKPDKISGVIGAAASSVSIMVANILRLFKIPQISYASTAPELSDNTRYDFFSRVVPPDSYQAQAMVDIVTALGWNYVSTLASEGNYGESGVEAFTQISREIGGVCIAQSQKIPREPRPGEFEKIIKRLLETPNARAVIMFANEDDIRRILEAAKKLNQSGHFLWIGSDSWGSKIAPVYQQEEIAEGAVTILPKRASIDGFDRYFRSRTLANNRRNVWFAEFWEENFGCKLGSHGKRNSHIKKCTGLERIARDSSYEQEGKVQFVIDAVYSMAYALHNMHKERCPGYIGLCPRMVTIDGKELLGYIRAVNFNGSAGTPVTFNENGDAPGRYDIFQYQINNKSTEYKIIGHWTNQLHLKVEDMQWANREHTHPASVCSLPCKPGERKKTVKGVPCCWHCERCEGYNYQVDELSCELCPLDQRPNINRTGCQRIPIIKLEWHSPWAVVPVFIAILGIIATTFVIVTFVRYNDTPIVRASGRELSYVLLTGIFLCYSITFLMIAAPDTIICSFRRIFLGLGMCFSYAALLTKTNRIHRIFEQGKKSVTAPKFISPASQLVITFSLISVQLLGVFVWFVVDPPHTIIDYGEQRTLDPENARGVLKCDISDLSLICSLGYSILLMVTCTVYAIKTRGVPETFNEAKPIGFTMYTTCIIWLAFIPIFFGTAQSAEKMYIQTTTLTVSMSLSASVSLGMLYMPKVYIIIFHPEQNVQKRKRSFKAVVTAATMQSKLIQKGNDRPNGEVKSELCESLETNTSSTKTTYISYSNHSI

Row | Structure (SMILES) | z-score
1 | CCOC(=O)c1ccc(NC(=S)N2CCSC2c2c(F)cc(F)cc2F)cc1 (configuration not stated) | 0.137
2 | CCOc1nc(OCC)nc(-n2cc(-c3ccccc3)nn2)n1 | -0.118
3 | CCOC(=O)N1CCC(NC(=O)c2cc(C(=O)NCC(OC)OC)ccc2CO)CC1 | -0.143
4 | Cc1cc(C)nc(SCC(=O)NC2=NN=C(c3ccc(Br)cc3)CS2)n1 | -0.093
5 | Clc1ccc(/C=N/Nc2nnc(-c3ncc[nH]3)c3ccccc23)cc1 | -0.105
6 | Cc1nn2c(-n3ccnc3)c3c(nc2c1-c1ccccc1)CCC3 | 0.319
7 | CCOC(=O)Cc1csc(NC(=O)c2ccco2)n1 | 0.153
8 | c1cnc2ccc(C(c3nnnn3C3CCCCC3)N3CCN(C4CCCCC4)CC3)cc2c1 (configuration not stated) | 0.847
9 | COc1ccc(C2CCCN2C(=O)Nc2ccccc2)cc1OC (configuration not stated) | -0.326
10 | Cc1ccc(C(=O)N2CCN(c3ccc(C(F)(F)F)cn3)CC2)cc1 | 0.0416
11 | CCN=c1scc(-c2cccs2)n1/N=C/c1cc(OC)ccc1O | 2.02
12 | COc1ccc(OC)c(NC(=O)c2ccc(NC(C)=O)cc2)c1 | -0.453
13 | Cc1ccc(S(=O)(=O)C(CCC(=O)c2ccc(Cl)cc2)C(N)=O)cc1 (configuration not stated) | -0.0882
14 | O=CNCCCc1nc2ccccc2n1Cc1cccc2ccccc12 | -0.365
15 | CN(C(=O)c1ccccn1)c1nnc(-c2cnccn2)s1 | -0.729
16 | Cc1cc(SCC(=O)OCC(=O)NC(C)c2ccccc2)c(C)cc1Br (configuration not stated) | 0.0118
17 | COC(=O)c1ccsc1NC(=O)CSc1nnnn1Cc1ccccc1 | -0.885
18 | O=C(Cn1cnc([N+](=O)[O-])c1)NCc1ccc(F)cc1 | -0.183
19 | CCN(CC)C(=O)/C(=C/c1ccc(F)cc1)NC(C)=O | -0.104
20 | CCOc1cc2c3c(c1)C1(OCCO1)C(=O)N3C(C)(C)CC2C (configuration not stated) | -0.0339
21 | COC(=O)C1=C(NC(=O)COc2ccc3ccccc3c2)CCS1 | 0.534
22 | CC(C)c1nc(NCCN2CCOCC2)c(C#N)c2c1COC(C)(C)C2 | -0.502
23 | CCn1c2ccccc2c2cc(/C=N/NC(=O)c3ccccc3)ccc21 | -0.25

Row | Structure (SMILES) | z-score
24 | Cc1ccc(C(=O)NC2CCS(=O)(=O)C2)cc1S(=O)(=O)N1CCCCC1 (configuration not stated) | 0.0878
25 | c1ccc(OCCCn2nnc(-c3ccncc3)n2)cc1 | -0.166
26 | CCc1ccccc1NC(=O)CSc1nnc([C@@H](NC(=O)OC(C)(C)C)C(C)C)o1 | 0.0357
27 | CCOc1oc(-c2ccc(OC)cc2)nc1C(F)(F)F | 0.0304
28 | O=c1/c(=C/c2ccco2)sc2n1CN(c1ccccc1)CN=2 | -0.194
29 | Cc1ccc(C)c(S(=O)(=O)n2cnc3ccccc32)c1 | 0.178
30 | Cn1c(=O)[nH]c(=O)c2c1nc(Br)n2CCCSc1nc2ccccc2o1 | -0.621
31 | Cc1ccc(N2C(=O)c3sc4nnc(C)c(=O)n4c3C2=O)cc1 | -0.285
32 | CCNc1nc(OC)nc(SCC(N)=O)n1 | 0.428
33 | CCOc1ccc(CN2CCCN(C)CC2)cc1 | -0.242
34 | COc1ccc(C2(CNC(=O)Cc3ccccc3)CCCC2)cc1OC | -0.343
35 | CC(C)NC(=O)COC(=O)c1ccccc1Oc1ccccc1 | -0.163
36 | C=CCC(C(=O)OC)(C(=O)OC)c1ccc([N+](=O)[O-])cn1 | -0.167
37 | CCCCN(CC)C(=O)Cc1cn(C)c2ccccc12 | 0.0814
38 | CCOC(=O)c1[nH]c(C)c(C(=O)N2CCN(c3ccccc3)CC2)c1C | 0.748
39 | CC(C)(C)c1nc(SCC(=O)Nc2ccc(N3CCOCC3)cc2)c2ccccc2n1 | 0.799
40 | N#Cc1c2c(nc(N)c1-c1ccccc1)CCCCC2 | -0.192
41 | Cc1cccc2sc(NC(=O)Cn3cccc3)nc12 | active: 13.9
42 | O=C(/C=C/c1ccc(Br)o1)NC(c1ccccc1)c1ccccc1 | -0.303
43 | c1ccc(N2CCN(c3nc(-c4cccs4)nc4ccccc34)CC2)cc1 | 1.64
44 | O=C1CC(c2ccco2)CC2=C1C=Nc1ccccc1N2 (configuration not stated) | -0.37
45 | Cc1ccc(C(C(=O)NCc2ccco2)N(C(=O)CNC(=O)c2cccs2)c2ccc(C)cc2)cc1 (configuration not stated) | -0.558
46 | CS(=O)(=O)N(CC(=O)N1CCN(c2ccc(F)cc2)CC1)C1CCCCC1 | 0.121

Row | Structure (SMILES) | z-score
47 | Cc1ccc(O)c(C(=O)c2cnc3c(c2)COc2ccc(C)cc2-3)c1 | -0.126
48 | O=C(/C=C/c1ccco1)Nc1cccc(S(=O)(=O)N2CCOCC2)c1 | -0.375
49 | COc1ccc(-c2nnn(CC(=O)NC3CCCc4ccccc43)n2)cc1OC (configuration not stated) | 0.303
50 | Cc1ccc(CNC(=O)c2ccc(OCC3CCCO3)cc2)cc1 (configuration not stated) | -0.11
51 | NC1=NC(c2ccc(Br)cc2)n2c(nc3ccccc32)N1 (configuration not stated) | -0.2
52 | Cc1ccc(C(=O)COC(=O)CCC(=O)Nc2ccccc2Cl)cc1[N+](=O)[O-] | 0.194
53 | CCn1c(SCC(=O)Nc2nc(C)cs2)nnc1-c1cccnc1 | 0.652
54 | C=CCOC(=O)Nc1c(C(=O)OC)[nH]c2ccc(Cl)cc12 | -0.103
55 | Cc1[nH]c(=O)[nH]c(=O)c1CSc1nnc(CCCCCNC(=O)OC(C)(C)C)o1 | 0.723
56 | CCCCCOc1ccc(C(=O)C(c2ccccc2)N2CCOCC2)cc1 (configuration not stated) | 0.204
57 | Cc1cc(C)n(CCC(=O)N/N=C/c2ccc(O)cc2O)n1 | 0.202
58 | O=C(Nc1ccc(N2CCOCC2)nc1)c1ccc(Cl)cc1 | -0.00174
59 | Cc1ccc2cc3cc(C(=O)NCCC(C)C)oc3nc2c1 | -0.127
60 | CCC(=O)N1CCc2cc(S(=O)(=O)NCCCN(CC)Cc3ccccc3)ccc21 | -0.213
61 | COc1cc(NC(=O)c2cc(-c3cccc(O)c3)on2)cc(OC)c1OC | 0.445
62 | CCCOc1ccc(N2C(=O)CC(N3CCC(O)(c4cccc(C(F)(F)F)c4)CC3)C2=O)cc1 (configuration not stated) | -1.24
63 | CCOC(=O)C1CCN(c2ccc(C(=O)O)cc2[N+](=O)[O-])CC1 | 0.0759
64 | C/C=C/c1ccc(OCC(=O)OCc2csc(Nc3ccc(C)cc3)n2)c(OC)c1 | -0.254
65 | CCOC(=O)n1c(=O)oc2ccc(Cl)cc21 | 0.192
66 | CSc1nc(Oc2ccc(F)cc2)c2ccccc2n1 | -0.0318
67 | CCCn1c(SCC(=O)N2c3ccccc3Sc3ccccc32)nc2ccccc21 | -0.0447
68 | Cc1c(C(=O)O)sc2nc3n(c(=O)c12)CCCCC3 | 0.273
69 | CCn1nc(C(=O)NNC(=O)COc2ccc(OC)cc2)c2ccccc2c1=O | -0.00775

Row | Structure (SMILES) | z-score
70 | CC(=O)Nc1nc(-c2ccc(Br)s2)cs1 | 0.29
71 | O=C(Nc1cccc(Cl)c1)N(Cc1nc2ccccc2c(=O)[nH]1)Cc1cccs1 | 0.103
72 | N=c1n(Cc2ccccc2)c2ccccc2n1CC(O)COc1ccccc1 (configuration not stated) | 0.257
73 | O=C(OCCNC(=O)c1ccc2ccccc2n1)c1ccc(F)cc1 | -0.612
74 | Nc1ccc(-c2nc3ccc([N+](=O)[O-])cc3[nH]2)cc1 | -0.169
75 | COc1ccc(C(=O)COc2cccc(NC(=O)c3ccco3)c2)cc1 | -0.402
76 | O=C(COc1ccccc1Br)N1CCN(c2ccccc2)CC1 | 0.00637
77 | CSc1nnc(Cn2c(=O)sc3ccccc32)n1-c1ccccc1 | 0.501
78 | Cn1c(Cc2ccccc2)nnc1SCC(=O)N1CCOCC1 | 0.0882
79 | O=S(=O)(c1ccc(Br)s1)n1cccn1 | 0.875
80 | COc1ccc(OCC(=O)NNC(=O)c2cccs2)cc1 | 0.919
81 | C/C(=N/OCO/N=C(\C)c1ccccc1)c1ccccc1 | 0.194
82 | CC1CCN(CCCCOc2ccccc2-c2ccccc2)CC1 | 0.189
83 | COc1ccc(NC(C)=O)cc1NC(C)C(=O)Nc1ccc(F)cc1 (configuration not stated) | 0.0371
84 | COC(=O)CCCCC(=O)C1C(=O)CC(C)(C)C(C(=O)OC)C1=O (configuration not stated) | -0.00816
85 | CC(=O)N1CCC(N(CCN2CCOCC2)C(=S)Nc2cc(C)ccc2C)CC1 | -0.0971
86 | Cc1ccccc1NC(=O)c1ccccc1NS(=O)(=O)c1cccc2cccnc12 | -0.0166
87 | COc1ccc(NC(=O)Cn2c(=O)n(-c3ccccc3)c(=O)c3oc4ccccc4c32)c(OC)c1 | -0.212
88 | COc1ccc(C(=O)/C=C/Nc2ccc(S(=O)(=O)Nc3nc(C)cc(C)n3)cc2)cc1OC | -0.234
89 | Cn1c(Cc2ccccc2)nnc1SCC(=O)Nc1ccccc1N1CCOCC1 | -0.301
90 | CCOc1ccc(CNn2nnnc2N)cc1 | 0.553
91 | CC(C)NC(=O)CSc1nnc(-c2ccc(C(C)(C)C)cc2)n1C | 0.122
92 | Cc1cccc(C)c1NC(=O)CCCSc1nnc(-c2ccco2)n1-c1ccccc1 | -0.675

Row | Structure (SMILES) | z-score
93 | O=C(C[n+]1cccc2ccccc21)c1ccccc1 | -0.217
94 | COc1cc(NC(=O)C2CCCN(c3ncccn3)C2)cc(OC)c1 (configuration not stated) | 0.815
95 | COC(=O)Cn1nc(-c2ccc(C)c(S(=O)(=O)N(C)C)c2)c2ccccc2c1=O | 0.444
96 | CCC(=O)N1CCCc2cc(S(=O)(=O)N3CCCc4ccccc43)ccc21 | -1.28
97 | O=[N+]([O-])c1ccc2n[nH]nc2c1 | -0.0156
98 | CCC1(c2ccc(Cl)cc2)NC(=S)N(c2ccccc2)N1 (configuration not stated) | active: 4.78
99 | CC(C)N=Cc1c(O)[nH]c2ccccc12 | 0.105
100 | CC(C)c1cccc(C(C)C)c1OCCCCN1CCCC1 | 0.931
101 | C=CCNC(=O)c1c(-c2c(F)cccc2Cl)noc1C | -0.0316
102 | Cc1noc(C)c1CN1C(=O)NC(Cc2ccccc2)(Cc2ccccc2)C1=O | 1.87
103 | CCOc1ccc(S(=O)(=O)NCc2ccccn2)cc1 | -0.111
104 | COc1ccc(NS(=O)(=O)c2cccc3nsnc23)cc1OC | 0.0859
105 | CCN(CC)S(=O)(=O)c1cccc(C(=O)N[C@H](C(=O)OCC(=O)Nc2ccccc2)C(C)C)c1 | -1.43
106 | CC1(C)CC(=O)C=C(NNC(=O)c2ccccc2O)C1 | -0.267
107 | Nc1ccc(S(=O)(=O)NC2(C(F)(F)F)NC(=O)N(c3ccccc3Cl)C2=O)cc1 (configuration not stated) | -0.371
108 | Cn1c(-c2c(N)n(CCc3ccccc3)c3nc4ccccc4nc23)nc2ccccc21 | -0.429
109 | CC1(C)CC(=O)C2=C(C1)N(Cc1cccnc1)C(=O)C2(NC(=O)c1ccc(F)cc1)C(F)(F)F (configuration not stated) | -0.0605
110 | CCN(C(=O)c1ccco1)c1nc(CC(=O)Nc2ccc(Cl)cc2)cs1 | -0.635
111 | COc1ccc(/C=C2\OC(=O)c3c(OC)cccc32)cc1OC | 0.0754
112 | Cc1ccc(-c2noc(-c3ccccc3C(=O)N3CCCC3)n2)cc1 | -0.628
